# Residue numbers refer to the chain shown, from its start. Numbers in names are those of the source. ± gives the standard deviation of the averaged measurements. Laboratory Escherichia coli strains with one amino-acid change in an essential protein, pooled on minimal glucose agar with carbenicillin or gentamicin at twice the control MIC (plus kanamycin and chloramphenicol for the plasmids), 48 h. Fold change of barcode share against drug-free plates; higher = less susceptible. Active = above 20 in both replicates (the paper's putatively resistant). '<' = one read or none on drug, '>' = one read or none on a drug-free plate. Shares are relative, so most strains fall below 1 when a few take over. Listed are strains with at least 15 reads on both drug-free plates, and hits; most hits rest on fewer reference reads. Replicate rank correlation about 0.5. Edits are read from barcodes.
# B1: leuC V201Q (protein)
# chain: MAKTLYEKLFDAHVVYEAENETPLLYIDRHLVHEVTSPQAFDGLRAHGRPVRQPGKTFATMDHNVSTQTKDINACGEMARIQMQELIKNCKEFGVELYDLNHPYQGIVHVMGPEQGVTLPGMTIVCGDSHTATHGAFGALAFGIGTSEVEHVLATQTLKQGRAKTMKIEVQGKAAPGITAKDIVLAIIGKTGSAGGTGHVQEFCGEAIRDLSMEGRMTLCNMAIEMGAKAGLVAPDETTFNYVKGRLHAPKGKDFDDAVAYWKTLQTDEGATFDTVVTLQAEEISPQVTWGTNPGQVISVNDNIPDPASFADPVERASAEKALAYMGLKPGIPLTEVAIDKVFIGSCTNSRIEDLRAAAEIAKGRKVAPGVQALVVPGSGPVKAQAEAEGLDKIFIEAGFEWRLPGCSMCLAMNNDRLNPGERCASTSNRNFEGRQGRGGRTHLVSPAMAAAAAVTGHFADIRNIK
# B2: leuC V201D (protein)
# chain: B1 chain with Q201D
# B3: leuC V201P (protein)
# chain: B1 chain with Q201P
# B4: aroB V165A (protein)
# chain: MERIVVTLGERSYPITIASGLFNEPASFLPLKSGEQVMLVTNETLAPLYLDKVRGVLEQAGVNVDSVILPDGEQYKSLAVLDTVFTALLQKPHGRDTTLVALGGGVVGDLTGFAAASYQRGVRFIQVPTTLLSQVDSSVGGKTAVNHPLGKNMIGAFYQPASVVADLDCLKTLPPRELASGLAEVIKYGIILDGAFFNWLEENLDALLRLDGPAMAYCIRRCCELKAEVVAADERETGLRALLNLGHTFGHAIEAEMGYGNWLHGEAVAAGMVMAARTSERLGQFSSAETQRIITLLKRAGLPVNGPREMSAQAYLPHMLRDKKVLAGEMRLILPLAIGKSEVRSGVSHELVLNAIADCQSA
# B5: leuD V12A (protein)
# chain: MAEKFIKHTGLAVPLDAANVDTDAIIPKQFLQKVTRTGFGAHLFNDWRFLDEKGQQPNPDFVLNFPQYQGASILLARENFGCGSSREHAPWALTDYGFKVVIAPSFADIFYGNSFNNQLLPVKLSDAEVDELFALVKANPGIHFDVDLEAQEVKAGEKTYRFTIDAFRRHCMMNGLDSIGLTLQHDDAIAAYEAKQPAFMN
# B6: leuD V13A (protein)
# chain: B5 chain with A12V, V13A
# B7: leuD L74A (protein)
# chain: B5 chain with A12V, L74A
# B8: leuD L63Q (protein)
# chain: B5 chain with A12V, L63Q
# B9: leuD V13P (protein)
# chain: B5 chain with A12V, V13P
# B10: leuD L63P (protein)
# chain: B5 chain with A12V, L63P
# B11: leuD V13D (protein)
# chain: B5 chain with A12V, V13D
# B12: leuD V13Q (protein)
# chain: B5 chain with A12V, V13Q
# B13: leuD L74Q (protein)
# chain: B5 chain with A12V, L74Q
# B14: leuD L63W (protein)
# chain: B5 chain with A12V, L63W
# B15: leuD V12D (protein)
# chain: B5 chain with A12D
# B16: leuD L63A (protein)
# chain: B5 chain with A12V, L63A
# Molecular target: Escherichia coli (laboratory strain)
# Assay: barcode share on antibiotic plates over drug-free plates; higher = less susceptible
# Details: antibiotic: carbenicillin; 2× MIC (3.1 µg/mL)
# Experimental: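 A pool of E. coli strains, each edited to carry one amino-acid change in an essential protein, was grown for 48 h on minimal glucose agar with or without antibiotic; strain barcodes were sequenced; mean of two replicates.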
row,Protein,fold change of barcode share
1,B1,0.694 ± 0.05
2,B2,3.16 ± 0.058
3,B3,1.32 ± 0.65
4,B4,0.373 ± 0.086
5,B5,0.353 ± 0.064
6,B6,0.548 ± 0.12
7,B7,0.528 ± 0.3
8,B8,0.332 ± 0.029
9,B9,0.245 ± 0.093
10,B10,0.369 ± 0.12
11,B11,0.65 ± 0.12
12,B12,0.274 ± 0.052
13,B13,0.428 ± 0.24
14,B14,0.749 ± 0.41
15,B15,0.567 ± 0.45
16,B16,0.531 ± 0.094

# Same assay, conditions: antibiotic: gentamicin; 2× MIC (MIC 0.45 µg/mL)
row,Protein,fold change of barcode share
1,B1,0.0136 ± 0.011
2,B3,0.0158 ± 0.0039
3,B4,< 0.00446
4,B5,< 0.00659
5,B6,< 0.0071
6,B7,0.0163 ± 0.012
7,B8,0.215 ± 0.23
8,B9,0.0246 ± 0.015
9,B10,0.193 ± 0.15
10,B11,< 0.0107
11,B12,< 0.00862
12,B13,< 0.0156
13,B14,0.0325 ± 0.023
14,B15,0.0168 ± 0.0092
15,B16,0.257 ± 0.25

# — the supplement of paper PMC11876631
